In PubChem BioAssay AID904 (National Center for Advancing Translational Sciences (NCATS), 2007):
The whole screen tested about 55,000 compounds, of which about 530 (0.96%) were called active. The inconclusive results got no clear call from the source; some entries with a clear call stand among them for comparison. Calls follow the shape of the dose curve; as a rule, active = well fitted cell-killing curve with a large enough effect; inconclusive = small, poorly fitted or top-dose-only effect; inactive = no such curve, though single readings can be large or run the other way. Potencies beside an inconclusive call are fits to weak or partial responses and may not hold up.

Assay: qHTS Screen for Compounds that Selectively Target Cancer Cells with p53 Mutations: Cytotoxicity of p53 Null Cells at the Nonpermissive Temperature; also: nearly all actives have a fitted effect of over 50% in size;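 as to activity, negative = cell killing: 0% = DMSO only and -100% = full killing by 100 µM tamoxifen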
Settings: H1299 p53-null (neo) cells, 39C, ATPlite viability, 24 h; activity, negative = cell killing: at 46.1 µM (top of the series)
Source text: NIH Chemical Genomics Center [NCGC] NIH Molecular Libraries Screening Centers Network [MLSCN] MLSCN Grant: 1 X01 MH079844-01 Assay Submitter (PI): Dr. SUN, YI, University of Michigan NCGC Assay Overview: Synthetic Lethal Screen for Compounds to Kill Cancer Cells with p53 Mutation. Tumor suppressor gene p53 serves as a major cellular barrier against tumorigenesis. […] The goal of this screening is to identify small molecule probes that selectively kill cancer cells with mutations in p53. This screening was carried out using two lines of H1299 lung cancer cells. The H1299-p53 A138V line express a temperature sensitive p53 mutant (p53ts) in which the mutant p53 protein (A138V) is in the mutant confirmation when grown at 39C (the nonpermissive temperature) and in the wild type conformation when grown at 32C (the permissive temperature). A H1299-neo line (p53 null) grown at both 39C and 32C were used as counter-screens to filter out false positive associated with temperature shifting. The small molecular compounds that selectively target mutant p53-containing cancer cells were selected as candidate probes for further study. A cytotoxicity assay based on the measurement of ATP contents in cells was used in this screen. Concentration-responses of all the compounds in the library collection were determined in qHTS using the cell lines and temperature conditions as above.
NCGC Assay Protocol Summary: Both the H1299-p53A138V and H1299-neo cell lines were provided by Dr.Yi Sun, a PI at the University Michigan. The cells were maintained and cultured at 37C. The resuspended frozen cells were used to plate the cells in the 1536-well assay plates at a density of 600 cells per well in 5 ul medium. The assay plates with the cells were incubated at 37C for 16 to 30 hours before the experiments. The library compounds in DMSO solution were added to the cells in assay plates and incubated 24 hours at 39C (for mutant p53 conformation) or 32C (for normal p53 conformation as control). An ATP_lite assay kit (PerkinElmer) was used to determine the cell viability. Tomaxifen (100uM) was used as the positive control for cell killing. Data were normalized to the controls for basal activity (DMSO only) and 100% killing (100uM tamoxifen). AC50 values were determined from concentration-response data modeled with the standard Hill equation. P53 assay protocol: 1. Reagent; 5 uL H1299-p53A138V or H1299-neo cell cells/well 2. Time; overnight; 37C incubation 3. Compounds; 23 nL; 5.9 nM to 46 uM 4. Controls; 23 nL; Tamoxifen 100 uM 5. Time; 24 hr; 39C incubation 6. Reagent; 3 uL; ATP_Lite reagent 7. Time; 20 min; Room Temperature 8. Detection; Luminescence; Viewlux plate reader Keywords: p53, synthetic lethal, cancer, cell viability, cytotoxicity, H1299 cell line, luminescence, MLSMR, MLSCN, NIH Roadmap, qHTS, NCGC
Potency is read from the fitted curve at half-maximal effect; tags tell the direction and shape of the fitted curve.

Structure (SMILES) | Potency | activity, negative = cell killing
Brc1ccc(Cn2c(-c3cncs3)nc3ccccc32)cc1 | inconclusive: 35.5 µM [cytotoxic, single point] | –
COc1ccccc1NC(=O)CSc1nnc(-c2ccccc2C)o1 | active: 3.98 µM | –
CC1=C(C(=O)OCc2ccc(C)cc2)C(c2ccccc2F)CC(=O)N1 (centres undefined) | inconclusive: 20 µM [cytotoxic, single point] | –
COCCNC(=O)c1ccc2c(=O)n(CCc3ccccc3)c(SCC(=O)CC(=O)OC)nc2c1 | inconclusive: 0.1 µM [cytotoxic, full curve, poor fit] | –
COc1ccccc1N1CCN(C(=O)Cn2c(=O)n3nc(-c4ccc(C)cc4)nc3c3ccccc32)CC1 | – | inactive: -6.1%
CC(C)Cc1ccc(S(=O)(=O)N2CCC(c3ccncc3)CC2)cc1 | inconclusive: 10 µM [cytotoxic, single point] | –
Cc1ccc(CNc2nc(-c3ccco3)nn2S(C)(=O)=O)cc1 | inconclusive: 7.94 µM [cytotoxic, partial curve] | –
CCc1ccc(CNC(=O)c2ccc3c(Cl)c4c(nc3c2)CCCC4)cc1 | inconclusive: 35.5 µM [cytotoxic, single point] | –
Cc1cccc(NC(=O)Nc2ccc(F)cc2)n1 | inconclusive: 12.6 µM [cytotoxic, single point] | –
CC1=C(c2ccc(C)c(C)c2)S(=O)(=O)N=C1N1CCC(C(=O)NCCc2ccc(Cl)cc2)CC1 | inconclusive: 15.8 µM [cytotoxic, single point] | –
COc1ccccc1NC(=O)c1ccc2c(Cl)c3c(nc2c1)CCCC3 | inconclusive: 10 µM [cytotoxic, partial curve, poor fit] | –
Cc1oc2ncn(CC(C)C)c(=O)c2c1C(=O)N1CCN(c2ccc(F)cc2)CC1 | inconclusive: 3.16 µM [cytotoxic, single point] | –
COc1ccccc1CNc1ccc(-c2nc(C)no2)cc1[N+](=O)[O-] | inconclusive: 20 µM [cytotoxic, partial curve, poor fit] | –
CC(=O)Nc1nonc1-c1nnc(SCC(=O)Nc2cc(C)cc(C)c2)n1C | inconclusive: 0.794 µM [cytotoxic, full curve] | –
COc1cc(OC)c(NC(=O)CCCn2nc(C)c3sc4ccccc4c3c2=O)cc1Cl | inconclusive: 15.8 µM [cytotoxic, single point] | –
COc1ccccc1C(=O)Nc1c(C(=O)N(CCN(C)C)Cc2ccco2)oc2ccccc12 | inconclusive: 20 µM [cytotoxic, single point] | –
Cc1ccc(Cn2c(=O)n(-c3ccccc3)c(=O)c3ccc(C(=O)NCc4ccco4)cc32)cc1 | inconclusive: 10 µM [cytotoxic, partial curve] | –
CCOc1ccc(NC(=O)c2cc3c(-c4ccccc4F)nn(C)c3s2)cc1 | inconclusive: 6.31 µM [cytotoxic, full curve] | –
Cc1ccccc1NC(=O)c1ccc2nc(Cc3ccccc3)oc2c1 | inconclusive: 0.1 µM [cytotoxic, full curve] | –
CCc1ccc(OCCCSc2nc(-c3ccc(C(C)(C)C)cc3)nc3cc(=O)[nH]n23)cc1 | inconclusive: 31.6 µM [cytotoxic, single point] | –
Cn1nnnc1SCCNCc1ccccc1OCc1ccccc1F | – | inactive: -14.8%
COc1ccc(/C=N/NC(=O)c2[nH]nc3c2CCc2ccccc2-3)cc1OC | inconclusive: 2.82 µM [cytotoxic, partial curve, poor fit] | –

Structure (SMILES) | Potency | activity, negative = cell killing
Cc1ccc(N2CCN(C(=O)c3cnn(-c4ccc(C)c(C)c4)c3C3CCNCC3)CC2)c(C)c1 | inconclusive: 12.6 µM [cytotoxic, single point] | –
O=C(c1ccc2c(c1)N(Cc1cccc(Cl)c1)C(=O)c1ccccc1S2=O)N1CCN(c2cccc(C(F)(F)F)c2)CC1 (centres undefined) | – | inactive: 13.9%
Cc1ccccc1Cn1c(=O)n(CC2CCC(C(=O)N3CCOCC3)CC2)c(=O)c2sccc21 (centres undefined) | – | inactive: 2.92%
CN(C)c1ccc(Nc2nc3ccccc3n3nnnc23)cc1 | inconclusive: 20 µM [cytotoxic, partial curve] | –
Cc1ccc2nc(Cl)c3cc(C(=O)NCCCN(C)Cc4ccccc4)sc3c2c1 | inconclusive: 12.6 µM [cytotoxic, partial curve] | –
Cc1ccc(CNC(=O)c2ccccc2NC(=O)c2nsc3ccccc23)cc1 | – | inactive: -29.2%
COc1ccc(-c2nc(SCC(=O)NCCc3ccccc3)n[nH]2)cc1 | inconclusive: 0.501 µM [cytotoxic, full curve, poor fit] | –
CC(=O)Nc1ccc(NC(=O)c2cc(-c3ccc4c(c3)OCCO4)on2)cc1 | inconclusive: 2.24 µM [cytotoxic, full curve] | –
CCCC1=Nc2cc(C(=O)NCCOC)ccc2Sc2ccccc21 | inconclusive: 2.82 µM [cytotoxic, partial curve] | –
Cc1c(Cl)cccc1NC(=O)Nc1ccc2snnc2c1 | inconclusive: 35.5 µM [cytotoxic, single point] | –
Cc1ccc(CCNC(=O)CCn2nc(-c3ccc(C)cc3)ccc2=O)cc1 | inconclusive: 0.0045 µM [cytotoxic, full curve, poor fit] | –
Cn1nc(C(=O)NCc2ccccc2)c2c1-c1ccccc1S(=O)(=O)C2 | inconclusive: 35.5 µM [cytotoxic, single point] | –
Cc1ccc(Cl)cc1Nc1nn2c(=O)c3ccc(C(=O)NC(C)c4ccccc4)cc3nc2s1 (centres undefined) | – | inactive: 10.5%
CCC(C(=O)NC1CCCCC1)n1c(SCc2cccc(F)c2)nc2ccncc21 (centres undefined) | – | inactive: -24.4%
COc1ccccc1NC(=O)Cn1ccn(-c2cc(C)cc(C)c2)c(=O)c1=O | inconclusive: 1 µM [cytotoxic, full curve] | –
Cc1ccc(S(=O)(=O)C(CNS(=O)(=O)c2ccc(F)c(C(F)(F)F)c2)c2ccco2)cc1 (centres undefined) | – | inactive: -12.9%
COC(=O)c1cc2sccc2n1CC(=O)Nc1cc(Cl)ccc1OC | – | inactive: -15.9%
COc1ccc(OCCn2nnc3sc4c(c3c2=O)CCCC4)cc1 | inconclusive: 1 µM [cytotoxic, partial curve] | –
COc1ccc(CCNC(=O)C(C)n2nc(C)c3sc4ccccc4c3c2=O)c(OC)c1 (centres undefined) | inconclusive: 11.2 µM [cytotoxic, partial curve] | –
COc1cc(C(=O)OCC(=O)Nc2ccc3c(c2)OC(F)(F)O3)ccc1OCc1c(C)noc1C | inconclusive: 0.199 µM [cytotoxic, partial curve] | –
CSc1ccc(CCNC(=O)CCCn2c(=O)c3cccn3c3ccccc32)cc1 | active: 12.6 µM | –
CC(C)c1ccc(N(CC(=O)O)S(=O)(=O)c2ccc3[nH]c(=O)c(=O)[nH]c3c2)cc1 | – | inactive: 1.35%

Structure (SMILES) | Potency | activity, negative = cell killing
CNC(=O)c1c(NC(=O)/C=C/c2ccccc2)sc2c1CCC2 | inconclusive: 22.4 µM [cytotoxic, partial curve, poor fit] | –
Cc1ccc2nc(-c3ccc(NC(=O)COc4ccc(Br)cc4Br)cc3)sc2c1 | inconclusive: 15.8 µM [cytotoxic, partial curve] | –
Oc1c(C(c2ccc(F)cc2)N2CCN(Cc3ccccc3)CC2)sc2nc(-c3ccco3)nn12 (centres undefined) | – | inactive: 8.44%
Cc1ccc(CS(=O)(=O)c2ncc(Cl)c(C(=O)Nc3nnc(C(C)C)s3)n2)cc1 | inconclusive: 25.1 µM [cytotoxic, single point] | –
CCc1ccc(-c2cn3nc(CC)sc3n2)cc1 | active: 10 µM | –
O=S(=O)(c1ccc(-c2cnc(C3CC3)o2)cc1)N1CCN(c2ccc(F)cc2)CC1 | inconclusive: 0.501 µM [cytotoxic, full curve, poor fit] | –
O=[N+]([O-])c1ccc(NNC(=S)Nc2ccc(F)cc2)cc1 | – | inactive: -5.06%
O=C(Nc1ccc(Br)cc1)c1cc(S(=O)(=O)NC2CCCC2)ccc1F | inconclusive: 35.5 µM [cytotoxic, single point] | –
Cc1cc(NS(=O)(=O)c2ccc(NC(=O)COc3ccccc3Br)cc2)no1 | inconclusive: 0.398 µM [cytotoxic, single point] | –
Cc1ccc(Nc2nc(N)nc(CSc3nc4ccccc4s3)n2)cc1 | inconclusive: 22.4 µM [cytotoxic, single point] | –
COc1ccc(OCC(O)Cn2c(=N)n(CCN3CCCCC3)c3ccccc32)cc1 (centres undefined) | inconclusive: 8.91 µM [cytotoxic, partial curve, poor fit] | –
Cc1ccc(NS(=O)(=O)c2ccc3oc(=O)c4ncn(C)c4c3c2)cc1C | inconclusive: 20 µM [cytotoxic, single point] | –
COc1cc(NC(=O)C2CCN(c3cnccn3)CC2)cc(OC)c1 | inconclusive: 31.6 µM [cytotoxic, single point] | –
CCc1nn(CC(=O)NCc2ccccc2)c(=O)c2cccn12 | active: 25.1 µM | –
Cc1cc(C)c2c(n1)nn1c(C)c(CCC(=O)Nc3cccc(C)c3C)c(C)nc21 | inconclusive: 0.398 µM [cytotoxic, partial curve] | –
Cc1cc(C)c2oc(-c3cccc(NC(=O)c4cccc(F)c4)c3C)nc2c1 | inconclusive: 0.158 µM [cytotoxic, full curve, poor fit] | –
Cc1ccc(NC(=O)CSc2nc3ccc(NC(=O)c4ccco4)cc3s2)cc1 | inconclusive: 0.1 µM [cytotoxic, full curve] | –
O=c1cc(COc2ccccc2Cl)nc2scc(-c3ccccc3)n12 | – | inactive: -14%
COc1ccccc1CNC(=O)CCn1c(=O)c2ccccc2n(CC(=O)Nc2cc(Cl)ccc2C)c1=O | inconclusive: 0.631 µM [cytotoxic, partial curve] | –
CCC(C(=O)Nc1cc(C(F)(F)F)ccc1Cl)n1nc(C)c2sc3ccccc3c2c1=O (centres undefined) | inconclusive: 0.0063 µM [cytotoxic, full curve, poor fit] | –
